In PubChem BioAssay AID1347120 (National Center for Advancing Translational Sciences (NCATS), 2019):
Screen size: about 390,000 compounds; about 930 (0.24%) were called active. Inconclusive results, whose numbers are uncertain, are shown with a selection of clear calls. Calls follow the shape of the dose curve; as a rule, active = well fitted activation curve with a large enough effect; inconclusive = small, poorly fitted or top-dose-only effect; inactive = no such curve, though single readings can be large or run the other way. Potencies of inconclusive entries are doubtful fits and often do not repeat.

Test: qHTS for Suppressors of FUS Proteinopathy: Primary screen using FUS-linked yeast assay; also: nearly all actives have a fitted effect of over 55% in size;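 as to growth rescue (activation): plate controls were DMSO vehicle for no effect and reference control for full effect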
Details: S. cerevisiae FUS-expressing, OD600, 24 h; Potency: growth rescue; growth rescue (activation): at 76.6 µM (top of the series)
In short: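 Yeast FUS proteinopathy model; galactose-induced FUS (2%), starting OD 0.005. Cpds in dilution series, 24hr, 30C, 99% humidity. Abs 600 nm growth. Pos ctrl CP55940 (top 92uM final); neg ctrl DMSO.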
Potency is read from the fitted curve at half-maximal effect; tags tell the direction and shape of the fitted curve.

SMILES | growth rescue (activation) | Potency
CCCCc1ccc(NC(=S)NCC2CCCO2)cc1 (stereo not drawn) | inactive: 5.13% | 
Cc1ccc(C)c(NC(=O)Cn2nc(C)c3nn(-c4ccc(Cl)cc4)c(C)c3c2=O)c1 | inactive: 7.47% | 
COc1ccc(N2CCN(c3ccc(-c4nc(-c5ccccc5)no4)cc3[N+](=O)[O-])CC2)cc1 | inactive: 2.33% | 
Cc1ccc(Cn2c(C)nc3c(c2=O)c2nc4ccccc4nc2n3Cc2ccco2)cc1 |  | inconclusive: 35.5 µM [activator, single point]
CCOC(=O)N1CCC(NC(=O)c2ccc3c(c2)N=C(CC)c2cc(C)ccc2S3)CC1 |  | inconclusive: 35.5 µM [activator, single point]
Cc1c(C)n(Cc2ccc(-c3ccccc3C(=O)O)cc2)c2ccc(C(=O)N[C@@H](C)c3ccc(Br)cc3)cc12 | inactive: 36.3% | 
CC1=C(C(=O)Nc2cccnc2)C(c2cccc(F)c2)n2nc(SCc3ccccc3F)nc2N1 (stereo not drawn) | inactive: 11.3% | 
O=C(O)CCNc1ccc2c(c1)OCCO2 |  | inconclusive: 39.8 µM [activator, single point]
O=C(Cc1ccccc1)NNC(=O)c1ccccc1C(=O)O | inactive: -3.61% | 
Cc1ccc(CN(c2ccc(C(=O)NCc3ccc4c(c3)OCO4)cc2)S(C)(=O)=O)cc1 |  | inconclusive: 15.8 µM [activator, partial curve, poor fit]
CCCCCC(=O)Nc1cccc(C2=NOC3(C2)C[C@@H](C(N)=O)N(C(=O)Cc2ccc([N+](=O)[O-])cc2)C3)c1 (stereo partly drawn) |  | inconclusive: 12.6 µM [activator, partial curve]
Cc1ccc2c(c1)N(C(=O)N1CCC(C(=O)NCc3ccccc3C)CC1)CC(C)O2 (stereo not drawn) | inactive: 9.82% | 
COc1ccc(C(C)(C)C)cc1NC(=O)CN1C(=O)C(=O)N(Cc2ccco2)C1=O |  | inconclusive: 20 µM [activator, single point]
COC(=O)C(C(=O)N1CCN(C)CC1)C1CCCCCC1 (stereo not drawn) | inactive: 4.14% | 
Cc1cc(C)n(-c2ccc(C(=O)N3CCN(S(=O)(=O)c4ccc(Br)cc4Cl)CC3)cc2)n1 |  | inconclusive: 35.5 µM [activator, single point]
O=C(Nc1ccc(NC(=O)c2cc3ccccc3o2)cc1)c1ccco1 | inactive: -2.73% | 
CC1CCCC(NC(=O)COC(=O)CCC(=O)c2cccs2)C1C (stereo not drawn) | inactive: 12% | 
COc1ccc(NC(=O)c2cc3ccccc3o2)cc1S(=O)(=O)N1CCCCC1 | inactive: 66.7% | 
CC1(C)N=C(SCc2ccc(F)cc2)c2ccccc2N1 | inactive: -0.0626% | 
OC(CSc1nnnn1-c1ccccc1)Cn1c2ccccc2c2ccccc21 (stereo not drawn) |  | inconclusive: 14.1 µM [activator, partial curve]
Clc1ccc(-c2nc3nc4ccccc4nc3n2Cc2ccco2)cc1 |  | inconclusive: 25.1 µM [activator, partial curve, poor fit]

SMILES | growth rescue (activation) | Potency
CC1CCCCN1CCNC(=O)c1ccc2c(=O)n(Cc3ccc(Cl)cc3)c(=S)[nH]c2c1 (stereo not drawn) |  | inconclusive: 14.1 µM [activator, partial curve, poor fit]
CC1=C(C(=O)OCc2ccccc2)C(c2ccc3ccccc3c2)NC(=O)N1CCCCCC(=O)O (stereo not drawn) |  | inconclusive: 20 µM [activator, partial curve, poor fit]
CC(C)(C)C(=O)COc1ccccc1[N+](=O)[O-] | inactive: -24.4% | 
CCc1ccc2c(c1)C(c1ccc([N+](=O)[O-])cc1)=NNC(c1ccc(F)cc1)=N2 |  | inconclusive: 50.1 µM [activator, single point]
Cc1ccc(S(=O)(=O)c2cn(CC(=O)Nc3cccc(Cl)c3)c3ccccc3c2=O)cc1 |  | inconclusive: 35.5 µM [activator, single point]
CCOC(=O)c1ccc(NC(=O)c2nc[nH]c2C(=O)NCCCCNC(=O)c2[nH]cnc2C(=O)Nc2ccc(C(=O)OCC)cc2)cc1 | inactive: -11.6% | 
Cc1ccc(C)c(C(=O)CC2(O)C(=O)Nc3ccccc32)c1 (stereo not drawn) | inactive: -9.32% | 
CCn1c(SCC(=O)Nc2ccc(C(=O)OC)cc2)nnc1-c1cccc(Cl)c1 | inactive: 3.38% | 
NNC(=O)CNC(c1ccccc1)c1cc(Cl)ccc1NC(=O)c1ccccc1 (stereo not drawn) |  | inconclusive: 31.6 µM [activator, single point]
NNc1nc2c(Cl)c(Cl)ccc2s1 |  | inconclusive: 6.31 µM [activator, full curve]
CC(=O)N1c2ccc(S(=O)(=O)NCCC(=O)N3CCCC(C)C3)cc2CC1C (stereo not drawn) | inactive: -4.13% | 
Cc1nc(N2N=C(c3ccc(Cl)cc3)CC2c2ccco2)sc1C(=O)N(C)C (stereo not drawn) |  | inconclusive: 31.6 µM [activator, partial curve, poor fit]
COc1ccc(NC(=O)c2nc(S(C)(=O)=O)ncc2N(Cc2ccc(C)cc2)Cc2ccco2)cc1Cl |  | inconclusive: 31.6 µM [activator, partial curve, poor fit]
CCC(C)C(NC(=O)c1ccccc1NC(=O)c1ccco1)C(=O)NNC(=O)c1ccncc1 (stereo not drawn) |  | inconclusive: 28.2 µM [activator, partial curve, poor fit]
COc1ccc(C)cc1NC(=O)N1CCN(S(=O)(=O)c2ccc3c(ccn3C)c2)CC1 |  | inconclusive: 28.2 µM [activator, single point]
O=C(CSc1nc2ccccc2o1)NCC(=O)c1ccccc1 |  | inconclusive: 6.31 µM [activator, single point]
COc1ccccc1CC1(C)C(=O)Nc2ccc(OC(F)(F)F)cc21 (stereo not drawn) |  | inconclusive: 31.6 µM [activator, single point]
Cc1ccc(S(=O)(=O)N2CC3C(=O)C[C@@H](c4ccccc4)N(S(=O)(=O)c4ccc(CCCOCCOCCNC(=O)OC(C)(C)C)cc4)C3CC2c2ccccc2)cc1 (stereo partly drawn) |  | inconclusive: 14.1 µM [activator, partial curve, poor fit]
CCOc1ccc(Nc2oc(-c3ccccc3Cl)nc2C#N)cc1 |  | inconclusive: 50.1 µM [activator, single point]
CCn1c2c(c(=O)n3ncc(C(=O)Nc4cc(Cl)ccc4OC)c13)CN(Cc1ccc(OC)cc1)CC2 |  | inconclusive: 50.1 µM [activator, single point]
Cc1cc(SCC(=O)OCC(=O)NCC2CCCO2)c(C)cc1Br (stereo not drawn) | inactive: -13.6% | 

SMILES | growth rescue (activation) | Potency
O=C(c1cc(-c2ccco2)nn1-c1cccc(Cl)c1)N1CCCCC1 |  | inconclusive: 2.82 µM [activator, full curve]
COc1cccc(-c2cc3c(=O)n(-c4ccccc4)c(=S)[nH]c3s2)c1 | inactive: 20.2% | 
COc1cc(-c2nc3ccccn3c2NCc2ccccc2)ccc1SC1CCCCC1 |  | inconclusive: 28.2 µM [activator, single point]
O=C1CC(N2CCN(c3ncccn3)CC2)C(=O)N1CCc1ccccc1 (stereo not drawn) |  | inconclusive: 28.2 µM [activator, single point]
O=C(c1ccc(Cl)c(S(=O)(=O)N2CCCCCC2)c1)N1CCN(c2ccc(O)cc2)CC1 |  | inconclusive: 8.91 µM [activator, partial curve]
COc1ccc(NC(=O)c2oc3ccc(S(=O)(=O)N4CCC5(CC4)OCCO5)cc3c2C)cc1 |  | inconclusive: 28.2 µM [activator, partial curve, poor fit]
Cc1cc(C)n2c(SCC(=O)N3CCN(S(=O)(=O)c4ccc(Cl)cc4)CC3)nnc2n1 |  | inconclusive: 15.8 µM [activator, partial curve, poor fit]
O=Cc1ccc(C(=O)OCC(=O)NC(=O)Nc2ccccc2F)cc1 |  | inconclusive: 14.1 µM [activator, partial curve]
CCOc1ccc(S(=O)(=O)N2Cc3ccccc3CC2C(=O)Nc2ccc(NC(C)=O)cc2)cc1 (stereo not drawn) |  | inconclusive: 35.5 µM [activator, single point]
CCCCN1CC(c2nc3ccccc3n2CCCCOc2cc(C)cc(C)c2)CC1=O (stereo not drawn) |  | inconclusive: 22.4 µM [activator, single point]
COc1cc2sc3ccc(C#Cc4ccc(N)cc4)cc3c(=O)c2cc1OC |  | inconclusive: 50.1 µM [activator, single point]
COc1cc(C2C3=C(CCCC3=O)Nc3[nH]n(-c4ccccc4)c(=O)c32)ccc1OC(C)=O (stereo not drawn) |  | inconclusive: 35.5 µM [activator, partial curve, poor fit]
COC(=O)c1ccc(Sc2ccccc2NS(=O)(=O)c2ccc(NC(C)=O)cc2)nc1 |  | inconclusive: 31.6 µM [activator, single point]
N#Cc1c(NC(=O)c2cc(-n3cnnc3)ccc2Cl)sc2c1CCCC2 |  | inconclusive: 28.2 µM [activator, single point]
CCOC(=O)c1cnc(-c2ccccc2)nc1C(F)(F)F | inactive: 2.76% | 
CCCCC1CCC(C(=O)N2CC(=O)Nc3ccc(C)cc3C2c2ccc(F)cc2)CC1 (stereo not drawn) |  | inconclusive: 25.1 µM [activator, single point]
COc1ccc(Cn2ccc3nc(C)c(C(=O)N4CCN(c5cccc(OC)c5)CC4)cc3c2=O)cc1 |  | inconclusive: 25.1 µM [activator, single point]
Cc1ccc([C@H]2N[C@]3(CCCN(Cc4cccn4C)C3=O)[C@H]3C(=O)N(C)C(=O)[C@@H]23)cc1 |  | inconclusive: 28.2 µM [activator, single point]
O=C(O)COc1ccc(/C=N/Nc2nc(Nc3ccccc3)nc(N3CCCCC3)n2)cc1 |  | inconclusive: 50.1 µM [activator, partial curve, poor fit]
CCN(C(=O)CCc1nc(-c2ccc(C)cc2)no1)c1cccc(C(F)(F)F)c1 |  | inconclusive: 35.5 µM [activator, partial curve, poor fit]
CCc1ccc(NC(=O)CSc2nnc3[nH]c(=O)cc(-c4ccccc4)n23)cc1 |  | inconclusive: 25.1 µM [activator, single point]
